{"source": "the supplement of paper PMC3334620", "note": "Over roughly 33,000 sequences, “E-score (-0.5 to 0.5)” has its median near -0.012; the highest 2% begin near 0.29. This is one part of the list."}
{"target": "T1, Ybr033w (UniProt P38073)", "T1 sequence": "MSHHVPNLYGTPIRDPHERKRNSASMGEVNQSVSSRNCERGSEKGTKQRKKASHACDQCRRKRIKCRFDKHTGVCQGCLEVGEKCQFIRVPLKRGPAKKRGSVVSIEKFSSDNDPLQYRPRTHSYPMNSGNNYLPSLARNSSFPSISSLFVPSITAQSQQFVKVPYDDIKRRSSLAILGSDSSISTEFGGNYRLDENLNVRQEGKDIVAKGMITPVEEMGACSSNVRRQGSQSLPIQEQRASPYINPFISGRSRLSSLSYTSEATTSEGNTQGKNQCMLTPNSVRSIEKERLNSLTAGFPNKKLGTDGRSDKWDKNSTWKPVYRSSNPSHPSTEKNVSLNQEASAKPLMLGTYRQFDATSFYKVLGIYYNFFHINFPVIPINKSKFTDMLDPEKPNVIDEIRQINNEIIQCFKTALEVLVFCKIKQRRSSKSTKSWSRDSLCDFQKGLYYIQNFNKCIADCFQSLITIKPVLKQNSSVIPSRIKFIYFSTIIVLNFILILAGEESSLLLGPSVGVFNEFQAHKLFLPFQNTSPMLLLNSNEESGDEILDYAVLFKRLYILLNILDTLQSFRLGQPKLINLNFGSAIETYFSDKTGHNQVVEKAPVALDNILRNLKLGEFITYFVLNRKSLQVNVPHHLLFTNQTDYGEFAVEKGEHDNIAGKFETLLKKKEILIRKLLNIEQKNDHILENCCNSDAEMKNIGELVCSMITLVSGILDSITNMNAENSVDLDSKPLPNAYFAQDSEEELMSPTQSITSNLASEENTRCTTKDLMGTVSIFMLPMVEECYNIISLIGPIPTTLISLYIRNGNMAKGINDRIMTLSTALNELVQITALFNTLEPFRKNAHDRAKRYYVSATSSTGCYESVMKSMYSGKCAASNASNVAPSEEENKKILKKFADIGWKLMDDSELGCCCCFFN", "assay": "PBM E-score (8-mer binding enrichment) (E-score (-0.5 to 0.5)); higher = stronger / more preferred TF binding; most listed sequences are background and not binding sites", "settings": "protein concentration: 200 nM; construct: GST-full length", "protocol": "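Universal 'all 10-mer' protein binding microarrays (Agilent AMADID 015681) probed with GST-tagged S. cerevisiae TFs (full-length or DBD) made by in vitro transcription/translation (PURExpress), about 100-200 nM. Bound TF was detected with fluorescent anti-GST. Each ungapped 8-mer (which stands for itself and its reverse complement) is scored by the PBM enrichment score (E-score), a modified Wilcoxon-Mann-Whitney statistic from -0.5 to +0.5, computed with the Universal PBM Analysis Suite. Scale: above 0.35 generally sequence-specific binding.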"}
{"sequence": "AGTGGACG", "PBM E-score": -0.0183}
{"sequence": "ACTATTTG", "PBM E-score": 0.248}
{"sequence": "GACCCCGC", "PBM E-score": -0.258}
{"sequence": "AACCTGTA", "PBM E-score": 0.0214}
{"sequence": "CTTGGCTA", "PBM E-score": 0.00737}
{"sequence": "CCCAGGAA", "PBM E-score": -0.0507}
{"sequence": "CCACCCTC", "PBM E-score": -0.0745}
{"sequence": "ATTCGAAT", "PBM E-score": 0.15}
{"sequence": "GAAGACGA", "PBM E-score": 0.0151}
{"sequence": "ACGTTGCA", "PBM E-score": -0.0209}
{"sequence": "ATGCCGAA", "PBM E-score": -0.0288}
{"sequence": "CGCCTCAA", "PBM E-score": -0.125}
{"sequence": "AATCCGGA", "PBM E-score": 0.172}
{"sequence": "AATGCGTG", "PBM E-score": -0.05}
{"sequence": "CACTTTTA", "PBM E-score": 0.0413}
{"sequence": "CGTGTGTA", "PBM E-score": 0.123}
{"sequence": "GTTAGACA", "PBM E-score": 0.218}
{"sequence": "GTCGAGTA", "PBM E-score": -0.00604}
{"sequence": "AACGCGAA", "PBM E-score": 0.0565}
{"sequence": "AGTGAGTA", "PBM E-score": 0.185}
{"sequence": "ACGCCGCC", "PBM E-score": -0.292}
{"sequence": "CGGTGACG", "PBM E-score": -0.0845}
{"sequence": "GCGCGCAC", "PBM E-score": -0.0608}
{"sequence": "CTCATCTC", "PBM E-score": -0.132}
{"sequence": "ATAACTAT", "PBM E-score": 0.199}
{"sequence": "TACTAATA", "PBM E-score": 0.185}
{"sequence": "GGCATGAC", "PBM E-score": -0.259}
{"sequence": "ATTGAAGC", "PBM E-score": 0.059}
{"sequence": "CCAACACA", "PBM E-score": 0.12}
{"sequence": "TATTTGAA", "PBM E-score": 0.255}
{"sequence": "AATCGCAT", "PBM E-score": 0.219}
{"sequence": "AAGGTCTA", "PBM E-score": 0.04}
{"sequence": "CTTAGACA", "PBM E-score": -0.124}
{"sequence": "ACTCATAC", "PBM E-score": 0.184}
{"sequence": "CCAGCGGC", "PBM E-score": -0.0519}
{"sequence": "CTAGTAGC", "PBM E-score": 0.0422}
{"sequence": "GCCCAGAA", "PBM E-score": 0.0667}
{"sequence": "CCTTAGCG", "PBM E-score": -0.178}
{"sequence": "GCCTTGAC", "PBM E-score": -0.218}
{"sequence": "AAGTAACA", "PBM E-score": 0.168}
{"sequence": "AAAAAGGT", "PBM E-score": 0.185}
{"sequence": "ACTACGAG", "PBM E-score": 0.102}
{"sequence": "CCTGCTCA", "PBM E-score": -0.156}
{"sequence": "CCGCTGAA", "PBM E-score": -0.0978}
{"sequence": "GCGGCGAA", "PBM E-score": -0.022}
{"sequence": "GGGCTTAA", "PBM E-score": -0.0348}
{"sequence": "ATTGTAGA", "PBM E-score": 0.295}
{"sequence": "TAGTAGAA", "PBM E-score": 0.096}
{"sequence": "GGGGTACC", "PBM E-score": -0.351}
{"sequence": "CTGGGGAC", "PBM E-score": -0.252}
{"sequence": "ACTTGGTA", "PBM E-score": 0.161}
{"sequence": "ATACAGTG", "PBM E-score": 0.108}
{"sequence": "AGTTATTC", "PBM E-score": 0.345}
{"sequence": "GTCGTGCA", "PBM E-score": -0.0611}
{"sequence": "AAAGACTG", "PBM E-score": -0.13}
{"sequence": "AAGCCTTA", "PBM E-score": -0.123}
{"sequence": "CCATACGC", "PBM E-score": 0.149}
{"sequence": "AGTGGTTA", "PBM E-score": 0.0512}
{"sequence": "AGGGTAGG", "PBM E-score": -0.0794}
{"sequence": "ACGGAGCA", "PBM E-score": -0.112}
{"sequence": "ACTTTACT", "PBM E-score": 0.0462}
{"sequence": "CCTCCACC", "PBM E-score": -0.149}
{"sequence": "CAACTGGC", "PBM E-score": -0.05}
{"sequence": "ACGATCAA", "PBM E-score": 0.186}
{"sequence": "GCTGACCC", "PBM E-score": -0.209}
{"sequence": "GAGATCGA", "PBM E-score": 0.0538}
{"sequence": "TGCGCGAA", "PBM E-score": 0.172}
{"sequence": "TCCATCGA", "PBM E-score": 0.103}
{"sequence": "AAATCGCG", "PBM E-score": 0.134}
{"sequence": "GGTAGAGA", "PBM E-score": -0.0192}
{"sequence": "TCTACTAA", "PBM E-score": 0.23}
{"sequence": "CAATACCA", "PBM E-score": 0.184}
{"sequence": "GGCTCTTA", "PBM E-score": -0.0701}
{"sequence": "AACCTCAA", "PBM E-score": -0.0448}
{"sequence": "CATATGCG", "PBM E-score": -0.00642}
{"sequence": "CGTATTTC", "PBM E-score": 0.0631}
{"sequence": "GTCCGGTA", "PBM E-score": -0.284}
{"sequence": "ATTTACCG", "PBM E-score": 0.132}
{"sequence": "TCGGAAGA", "PBM E-score": 0.193}
{"sequence": "ATGGGGTA", "PBM E-score": 0.0125}
{"sequence": "GATTCGAC", "PBM E-score": 0.0558}
{"sequence": "ATGGATCC", "PBM E-score": -0.134}
{"sequence": "CGAGGACG", "PBM E-score": -0.322}
{"sequence": "GGGTTGTA", "PBM E-score": -0.0949}
{"sequence": "GTACCAAA", "PBM E-score": 0.164}
{"sequence": "CGTGTCGC", "PBM E-score": 0.0894}
